Laboratory results taken from the supplement of paper PMC11876631.
± gives the standard deviation of the averaged measurements. Laboratory Escherichia coli strains with one amino-acid change in an essential protein, pooled on minimal glucose agar with carbenicillin or gentamicin at twice the control MIC (plus kanamycin and chloramphenicol for the plasmids), 48 h. Fold change of barcode share against drug-free plates; higher = less susceptible. Active = above 20 in both replicates (the paper's putatively resistant). '<' = one read or none on drug, '>' = one read or none on a drug-free plate. Shares are relative, so most strains fall below 1 when a few take over. Listed are strains with at least 15 reads on both drug-free plates, and hits; most hits rest on fewer reference reads. Replicate rank correlation about 0.5. Edits are read from barcodes.

Molecular target: Escherichia coli (laboratory strain)
Test: barcode share on antibiotic plates over drug-free plates; higher = less susceptible
Experimental: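 A pool of E. coli strains, each edited to carry one amino-acid change in an essential protein, was grown for 48 h on minimal glucose agar with or without antibiotic; strain barcodes were sequenced; mean of two replicates.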

[1] = antibiotic: carbenicillin, 2× MIC (3.1 µg/mL)
[2] = antibiotic: gentamicin, 2× MIC (MIC 0.45 µg/mL)

| Protein | fold change of barcode share [1] | fold change of barcode share [2] |
| --- | --- | --- |
| folE M99A (protein) MPSLSKEAALVHEALVARGLETPLRPPVHEMDNETRKSLIAGHMTEIMQLLNLDLADDSLMETPHRIAKMYVDEIFSGLDYANFPKITLIENKMKVDEAVTVRDITLTSTCEHHFVTIDGKATVAYIPKDSVIGLSKINRIVQFFAQRPQVQERLTQQILIALQTLLGTNNVAVSIDAVHYCVKARGIRDATSATTTTSLGGLFKSSQNTRHEFLRAVRHHN | 0.332 ± 0.067 | – |
| folE I105A (protein) MPSLSKEAALVHEALVARGLETPLRPPVHEMDNETRKSLIAGHMTEIMQLLNLDLADDSLMETPHRIAKMYVDEIFSGLDYANFPKITLIENKMKVDEMVTVRDATLTSTCEHHFVTIDGKATVAYIPKDSVIGLSKINRIVQFFAQRPQVQERLTQQILIALQTLLGTNNVAVSIDAVHYCVKARGIRDATSATTTTSLGGLFKSSQNTRHEFLRAVRHHN | 0.25 ± 0.03 | – |
| folE I105Q (protein) MPSLSKEAALVHEALVARGLETPLRPPVHEMDNETRKSLIAGHMTEIMQLLNLDLADDSLMETPHRIAKMYVDEIFSGLDYANFPKITLIENKMKVDEMVTVRDQTLTSTCEHHFVTIDGKATVAYIPKDSVIGLSKINRIVQFFAQRPQVQERLTQQILIALQTLLGTNNVAVSIDAVHYCVKARGIRDATSATTTTSLGGLFKSSQNTRHEFLRAVRHHN | 0.324 ± 0.056 | 0.0201 ± 0.0027 |
| folE M99Q (protein) MPSLSKEAALVHEALVARGLETPLRPPVHEMDNETRKSLIAGHMTEIMQLLNLDLADDSLMETPHRIAKMYVDEIFSGLDYANFPKITLIENKMKVDEQVTVRDITLTSTCEHHFVTIDGKATVAYIPKDSVIGLSKINRIVQFFAQRPQVQERLTQQILIALQTLLGTNNVAVSIDAVHYCVKARGIRDATSATTTTSLGGLFKSSQNTRHEFLRAVRHHN | 0.178 ± 0.14 | < 0.014 |
| ffh V186A (protein) MFDNLTDRLSRTLRNISGRGRLTEDNVKDTLREVRMALLEADVALPVVREFINRVKEKAVGHEVNKSLTPGQEFVKIVRNELVAAMGEENQTLNLAAQPPAVVLMAGLQGAGKTTSVGKLGKFLREKHKKKVLVVSADVYRPAAIKQLETLAEQVGVDFFPSDVGQKPVDIVNAALKEAKLKFYDALLVDTAGRLHVDEAMMDEIKQVHASINPVETLFVVDAMTGQDAANTAKAFNEALPLTGVVLTKVDGDARGGAALSIRHITGKPIKFLGVGEKTEALEPFHPDRIASRILGMGDVLSLIEDIESKVDRAQAEKLASKLKKGDGFDLNDFLEQLRQMKNMGGMASLMGKLPGMGQIPDNVKSQMDDKVLVRMEAIINSMTMKERAKPEIIKGSRKRRIAAGCGMQVQDVNRLLKQFDDMQRMMKKMKKGGMAKMMRSMKGMMPPGFPGR | 0.255 ± 0.044 | 0.012 ± 0.011 |
| ffh V186Q (protein) MFDNLTDRLSRTLRNISGRGRLTEDNVKDTLREVRMALLEADVALPVVREFINRVKEKAVGHEVNKSLTPGQEFVKIVRNELVAAMGEENQTLNLAAQPPAVVLMAGLQGAGKTTSVGKLGKFLREKHKKKVLVVSADVYRPAAIKQLETLAEQVGVDFFPSDVGQKPVDIVNAALKEAKLKFYDQLLVDTAGRLHVDEAMMDEIKQVHASINPVETLFVVDAMTGQDAANTAKAFNEALPLTGVVLTKVDGDARGGAALSIRHITGKPIKFLGVGEKTEALEPFHPDRIASRILGMGDVLSLIEDIESKVDRAQAEKLASKLKKGDGFDLNDFLEQLRQMKNMGGMASLMGKLPGMGQIPDNVKSQMDDKVLVRMEAIINSMTMKERAKPEIIKGSRKRRIAAGCGMQVQDVNRLLKQFDDMQRMMKKMKKGGMAKMMRSMKGMMPPGFPGR | 0.157 ± 0.054 | < 0.00845 |
| ffh V78W (protein) MFDNLTDRLSRTLRNISGRGRLTEDNVKDTLREVRMALLEADVALPVVREFINRVKEKAVGHEVNKSLTPGQEFVKIWRNELVAAMGEENQTLNLAAQPPAVVLMAGLQGAGKTTSVGKLGKFLREKHKKKVLVVSADVYRPAAIKQLETLAEQVGVDFFPSDVGQKPVDIVNAALKEAKLKFYDVLLVDTAGRLHVDEAMMDEIKQVHASINPVETLFVVDAMTGQDAANTAKAFNEALPLTGVVLTKVDGDARGGAALSIRHITGKPIKFLGVGEKTEALEPFHPDRIASRILGMGDVLSLIEDIESKVDRAQAEKLASKLKKGDGFDLNDFLEQLRQMKNMGGMASLMGKLPGMGQIPDNVKSQMDDKVLVRMEAIINSMTMKERAKPEIIKGSRKRRIAAGCGMQVQDVNRLLKQFDDMQRMMKKMKKGGMAKMMRSMKGMMPPGFPGR | 0.234 ± 0.17 | < 0.00992 |
| ffh V135A (protein) MFDNLTDRLSRTLRNISGRGRLTEDNVKDTLREVRMALLEADVALPVVREFINRVKEKAVGHEVNKSLTPGQEFVKIVRNELVAAMGEENQTLNLAAQPPAVVLMAGLQGAGKTTSVGKLGKFLREKHKKKVLVASADVYRPAAIKQLETLAEQVGVDFFPSDVGQKPVDIVNAALKEAKLKFYDVLLVDTAGRLHVDEAMMDEIKQVHASINPVETLFVVDAMTGQDAANTAKAFNEALPLTGVVLTKVDGDARGGAALSIRHITGKPIKFLGVGEKTEALEPFHPDRIASRILGMGDVLSLIEDIESKVDRAQAEKLASKLKKGDGFDLNDFLEQLRQMKNMGGMASLMGKLPGMGQIPDNVKSQMDDKVLVRMEAIINSMTMKERAKPEIIKGSRKRRIAAGCGMQVQDVNRLLKQFDDMQRMMKKMKKGGMAKMMRSMKGMMPPGFPGR | 0.373 ± 0.22 | < 0.00656 |
| ffh V186W (protein) MFDNLTDRLSRTLRNISGRGRLTEDNVKDTLREVRMALLEADVALPVVREFINRVKEKAVGHEVNKSLTPGQEFVKIVRNELVAAMGEENQTLNLAAQPPAVVLMAGLQGAGKTTSVGKLGKFLREKHKKKVLVVSADVYRPAAIKQLETLAEQVGVDFFPSDVGQKPVDIVNAALKEAKLKFYDWLLVDTAGRLHVDEAMMDEIKQVHASINPVETLFVVDAMTGQDAANTAKAFNEALPLTGVVLTKVDGDARGGAALSIRHITGKPIKFLGVGEKTEALEPFHPDRIASRILGMGDVLSLIEDIESKVDRAQAEKLASKLKKGDGFDLNDFLEQLRQMKNMGGMASLMGKLPGMGQIPDNVKSQMDDKVLVRMEAIINSMTMKERAKPEIIKGSRKRRIAAGCGMQVQDVNRLLKQFDDMQRMMKKMKKGGMAKMMRSMKGMMPPGFPGR | 0.335 ± 0.14 | < 0.00553 |
| ffh V186D (protein) MFDNLTDRLSRTLRNISGRGRLTEDNVKDTLREVRMALLEADVALPVVREFINRVKEKAVGHEVNKSLTPGQEFVKIVRNELVAAMGEENQTLNLAAQPPAVVLMAGLQGAGKTTSVGKLGKFLREKHKKKVLVVSADVYRPAAIKQLETLAEQVGVDFFPSDVGQKPVDIVNAALKEAKLKFYDDLLVDTAGRLHVDEAMMDEIKQVHASINPVETLFVVDAMTGQDAANTAKAFNEALPLTGVVLTKVDGDARGGAALSIRHITGKPIKFLGVGEKTEALEPFHPDRIASRILGMGDVLSLIEDIESKVDRAQAEKLASKLKKGDGFDLNDFLEQLRQMKNMGGMASLMGKLPGMGQIPDNVKSQMDDKVLVRMEAIINSMTMKERAKPEIIKGSRKRRIAAGCGMQVQDVNRLLKQFDDMQRMMKKMKKGGMAKMMRSMKGMMPPGFPGR | 0.339 ± 0.16 | < 0.00615 |
| ffh V78A (protein) MFDNLTDRLSRTLRNISGRGRLTEDNVKDTLREVRMALLEADVALPVVREFINRVKEKAVGHEVNKSLTPGQEFVKIARNELVAAMGEENQTLNLAAQPPAVVLMAGLQGAGKTTSVGKLGKFLREKHKKKVLVVSADVYRPAAIKQLETLAEQVGVDFFPSDVGQKPVDIVNAALKEAKLKFYDVLLVDTAGRLHVDEAMMDEIKQVHASINPVETLFVVDAMTGQDAANTAKAFNEALPLTGVVLTKVDGDARGGAALSIRHITGKPIKFLGVGEKTEALEPFHPDRIASRILGMGDVLSLIEDIESKVDRAQAEKLASKLKKGDGFDLNDFLEQLRQMKNMGGMASLMGKLPGMGQIPDNVKSQMDDKVLVRMEAIINSMTMKERAKPEIIKGSRKRRIAAGCGMQVQDVNRLLKQFDDMQRMMKKMKKGGMAKMMRSMKGMMPPGFPGR | 0.315 ± 0.018 | 0.0212 ± 0.014 |
| accA I200A (protein) MSLNFLDFEQPIAELEAKIDSLTAVSRQDEKLDINIDEEVHRLREKSVELTRKIFADLGAWQIAQLARHPQRPYTLDYVRLAFDEFDELAGDRAYADDKAIVGGIARLDGRPVMIIGHQKGRETKEKIRRNFGMPAPEGYRKALRLMQMAERFKMPIITFIDTPGAYPGVGAEERGQSEAIARNLREMSRLGVPVVCTVAGEGGSGGALAIGVGDKVNMLQYSTYSVISPEGCASILWKSADKAPLAAEAMGIIAPRLKELKLIDSIIPEPLGGAHRNPEAMAASLKAQLLADLADLDVLSTEDLKNRRYQRLMSYGYA | 0.244 ± 0.0078 | < 0.0071 |
| accA I200Q (protein) MSLNFLDFEQPIAELEAKIDSLTAVSRQDEKLDINIDEEVHRLREKSVELTRKIFADLGAWQIAQLARHPQRPYTLDYVRLAFDEFDELAGDRAYADDKAIVGGIARLDGRPVMIIGHQKGRETKEKIRRNFGMPAPEGYRKALRLMQMAERFKMPIITFIDTPGAYPGVGAEERGQSEAIARNLREMSRLGVPVVCTVQGEGGSGGALAIGVGDKVNMLQYSTYSVISPEGCASILWKSADKAPLAAEAMGIIAPRLKELKLIDSIIPEPLGGAHRNPEAMAASLKAQLLADLADLDVLSTEDLKNRRYQRLMSYGYA | 0.276 ± 0.12 | < 0.0138 |
